In PMC4336329 (PLoS ONE, 2015):
In all, about 310,000 compounds went through this assay and about 14,000 (4.5%) showed an effect of 50% or more. The effect is printed as a negative number. The list shows a part of the results.

target: human ether-à-go-go-related gene (hERG) potassium channel (human, UniProt Q12809); assay: primary screen, population patch clamp on CHO cells stably expressing hERG
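Note: peak tail current of the secondary pulse compared with the same well before compound.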

Chain of human ether-à-go-go-related gene (hERG) potassium channel (Q12809 whole entry, looked up): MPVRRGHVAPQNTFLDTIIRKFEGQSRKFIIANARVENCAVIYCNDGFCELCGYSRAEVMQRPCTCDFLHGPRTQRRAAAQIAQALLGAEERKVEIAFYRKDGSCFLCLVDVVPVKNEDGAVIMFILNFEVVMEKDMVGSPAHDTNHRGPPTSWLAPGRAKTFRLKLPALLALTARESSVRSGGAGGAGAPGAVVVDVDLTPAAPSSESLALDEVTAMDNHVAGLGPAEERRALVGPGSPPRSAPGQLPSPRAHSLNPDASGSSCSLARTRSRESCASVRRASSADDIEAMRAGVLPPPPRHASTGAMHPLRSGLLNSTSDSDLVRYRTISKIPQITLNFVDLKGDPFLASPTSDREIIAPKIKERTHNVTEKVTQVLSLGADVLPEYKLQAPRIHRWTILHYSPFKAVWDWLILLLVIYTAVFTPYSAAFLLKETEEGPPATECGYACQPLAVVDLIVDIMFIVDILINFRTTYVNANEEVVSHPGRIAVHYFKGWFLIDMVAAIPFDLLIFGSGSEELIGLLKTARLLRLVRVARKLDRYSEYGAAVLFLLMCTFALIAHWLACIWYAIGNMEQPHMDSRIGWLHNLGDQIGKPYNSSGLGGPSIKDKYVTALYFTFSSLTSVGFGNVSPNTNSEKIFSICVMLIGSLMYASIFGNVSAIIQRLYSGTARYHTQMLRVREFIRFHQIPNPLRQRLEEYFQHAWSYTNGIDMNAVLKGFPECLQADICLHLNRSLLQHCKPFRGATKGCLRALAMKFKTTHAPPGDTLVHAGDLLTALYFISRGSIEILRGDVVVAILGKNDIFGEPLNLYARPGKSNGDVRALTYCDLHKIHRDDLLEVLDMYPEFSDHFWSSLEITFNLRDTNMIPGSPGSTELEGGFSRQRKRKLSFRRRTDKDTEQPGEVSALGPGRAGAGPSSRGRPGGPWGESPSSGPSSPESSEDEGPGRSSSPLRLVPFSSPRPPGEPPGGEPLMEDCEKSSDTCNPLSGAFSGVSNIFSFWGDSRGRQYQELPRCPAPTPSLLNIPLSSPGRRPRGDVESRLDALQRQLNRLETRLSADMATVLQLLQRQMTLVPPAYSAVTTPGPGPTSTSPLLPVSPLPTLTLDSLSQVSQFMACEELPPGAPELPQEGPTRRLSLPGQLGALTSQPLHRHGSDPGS

Structure (SMILES)	hERG current change (%, negative = inhibition) at 10uM
CC(C)[N+]1(C)[C@@H]2CC[C@H]1CC(OC(=O)C(CO)c1ccccc1)C2.[Br-] (stereo partly shown)	11.7%
COc1cc(OC)c2ccc(=O)oc2c1C(CCN1CCCC(C)C1)c1ccc2c(c1)OCO2 (stereo not shown)	-61%
CN(Cc1nc(-c2cnccn2)no1)CC1(c2ccccc2)CC1(C)C (stereo not shown)	4.2%
CC(=O)Nc1ccc(S(=O)(=O)Nc2ccc3ccccc3n2)cc1	10.9%
CC(C)N1C(=O)CC2(CC[N+](C)(CCOC(=O)C(O)(c3ccccc3)c3ccccc3)CC2)C1=O.[I-] (stereo not shown)	9.05%
COc1ccc(OC)c(C2=Nn3c(nnc3-c3cccc(OC(C)C)c3)SC2)c1	-8.24%
O=C(CCc1ccccc1)NNC(=S)NCc1ccc(Cl)cc1	7.88%
COc1cccc(N(C(=O)c2snc(C(N)=O)c2N)C(C(=O)NCC2CCCO2)c2ccc(F)cc2)c1 (stereo not shown)	10.6%
CCONc1ncnc2nonc12	17.8%
CC(C)CC(=O)Nc1ccc(C(=O)NN2C(=O)c3ccccc3C2=O)cc1	2.48%
Cc1ccccc1Nc1nc2nonc2nc1N1CCOCC1	-7.99%
CCOc1ccccc1N(CC(=O)NCC1CCCO1)C(=O)CCC(=O)Nc1cc(C)on1 (stereo not shown)	21.6%
NNC(=O)COc1cccc(Oc2ccccc2)c1	22%
CCCC(=O)N1CC2(C)CN(C(=O)CCC)CC(CCC)(C1)C2=O	9.95%
CN(C(=O)CSC1=Nc2ccccc2C2=NC(c3ccccc3)C(=O)N12)C1CCCCC1 (stereo not shown)	-73%
CN1CCN(c2ccc(NC(=O)c3ccc4ccccc4c3)cc2)CC1	-66.1%
CCC(C(=O)N1CCC2(CC1)OCCO2)n1c2ccccc2c2nc(=O)cc(C)n21 (stereo not shown)	5.82%
CCOC(=O)C1=C(COC(=O)CNS(=O)(=O)c2ccc(C)cc2)NC(=O)NC1C (stereo not shown)	18%
O=c1n(-c2ccccc2)c(=O)n2n1CCCC2	18.6%
Cc1nn(CC(=O)N2CCOCC2)c(=O)c2ccccc12	-3.51%
Cn1cc(CN2CCC(C(=O)Nc3cccc(-c4cscn4)c3)CC2)cn1	5.33%
COc1ccc(/C=C/C(=O)N[C@H](C(=O)O)C(C)C)cc1	42.9%

Structure (SMILES)	hERG current change (%, negative = inhibition) at 10uM
COc1ccc(Cn2c(S(=O)(=O)CC(N)=O)nc3ccccc32)cc1[N+](=O)[O-]	-7.44%
O=[N+]([O-])c1ccc(N2CCOCC2)c2ccncc12	-41.5%
O=C(COC(=O)c1nc(-c2ccccc2)n(-c2cccc(C(F)(F)F)c2)n1)NCc1cccs1	-16%
N/C(=N\OC(=O)CCC1CCCCC1)c1ccccn1	-5.76%
O=[N+]([O-])c1ccc(O)c(C=Nc2ccc3nc(-c4ccccc4)[nH]c3c2)c1	9.15%
COC(=O)CNC(=O)C(Cc1c[nH]c2ccccc12)NC(=O)OC(C)(C)C (stereo not shown)	11%
CCC(=O)N(C)CCc1cc2c(c(OC)c1/C=N/Nc1ccc(C(=O)O)cc1)OCO2	-1.63%
Cc1ccccc1C1CCCN(Cc2nc(C3CC3)no2)C1 (stereo not shown)	4.27%
CCCCCn1ccc(=O)c2c(C(F)(F)F)nccc21	-11.3%
COc1ccc(OCCSc2nnc(-c3ccc(OC)cc3)n2N)cc1	-5.14%
COc1ccc(Nc2nc(N)nc(CSC(=S)N3CCC(C)CC3)n2)cc1	-5.86%
CN(C)c1cc2c(c(N(C)C)c1)C(=O)c1ccccc1C2=O	6.61%
COc1ccc2c(C=Nc3c(C)n(C)n(-c4ccccc4)c3=O)c(O)n(Cc3ccco3)c(=O)c2c1	3.02%
CCc1c(C)sc(NC(=O)c2cnn3cccnc23)c1C#N	5.01%
C/C(=N\NC(=O)c1cc(-c2ccccc2C)nc2ccccc12)c1cccnc1	-10.3%
CCOC(=O)/C(C(=Nc1ccccc1)Nc1ccccc1)=C(\C)O	7.35%
COc1ccc(C=C(c2nc3ccccc3s2)c2nc3ccccc3s2)cc1O	3.94%
Cc1cc([N+](=O)[O-])nn1CCC(=O)Nc1nccs1	11.1%
COc1ccccc1NC(=O)CSc1nnnn1-c1ccc(C(=O)O)cc1	13.3%
c1cncc(CNC2=NCCCCC2)c1	14.3%
CCCCCC(=O)N1CCN(CCN=CC2=C(O)CC(c3ccc(OC)cc3)CC2=O)CC1 (stereo not shown)	-74.1%
NC(CC(=O)O)c1cccc(OCc2ccccc2)c1 (stereo not shown)	5.65%

Structure (SMILES)	hERG current change (%, negative = inhibition) at 10uM
COc1cccc(/C=N/n2c(-c3n[nH]c4c3CCC4)n[nH]c2=S)c1OC	14.1%
Cc1ccc(NC(=O)CN(Cc2ccccc2)S(C)(=O)=O)cc1C	-17%
N#Cc1sc(C(N)=O)c(-c2ccccc2)c1-c1ccccc1	9.86%
CC(=O)Nc1sc(C)c(C)c1C(=O)OCC(=O)NCc1ccc(Cl)cc1	4.69%
CC1CCN(c2nc(-c3cccnc3)nc3scc(-c4ccccc4)c23)CC1	15.4%
O=C(NCCCCC(NC(=O)C1CCCCC1)C(=O)O)c1ccccc1 (stereo not shown)	8.78%
CCCNC(=O)c1nn2cc(Br)cnc2c1Br	-69.2%
CN(C)/C=C(\C#N)C(=O)N/N=C(\CC(=O)C(F)(F)F)c1ccco1	29.3%
Cc1cc(C(=O)C(C)OC(=O)c2ccc(NC(=O)CC#N)cc2)c(C)n1-c1ccc(OC(F)F)cc1 (stereo not shown)	5.26%
CC1=CC(C)(C)N(C(=O)CSc2nncn2C)c2ccccc21	2.16%
O=C(COC(=O)/C=C/c1cccc(Br)c1)NC1CCCCC1	15%
CCCNC(=O)c1ccccc1C(=O)NC1(C(=O)NCCC)CCCC1	19.8%
O=C(O)c1cccc(NC(=O)c2ccc3c(c2)C(=O)N(c2cccc([N+](=O)[O-])c2)C3=O)c1	23.4%
COc1ccc(N2CCN(C(=O)CN(c3ccc(Br)cc3)S(C)(=O)=O)CC2)cc1	-19.2%
O=C(NCCN1CCCC1)C1CCC(=O)N(CCCN2CCOCC2)C1 (stereo not shown)	14.8%
CCOc1ccc(NS(=O)(=O)c2ccc3[nH]c(=O)c(=O)[nH]c3c2)cc1	12.5%
Cc1ccccc1CNS(=O)(=O)c1csc(C(N)=O)c1	12.8%
O=C(NCCNC(=O)c1ccc(Br)o1)c1ccc(Br)o1	-4%
CCOC(=O)c1c(C=O)c(C)n(Cc2ccccc2)c1C	-23.2%
COc1ccccc1NS(=O)(=O)c1c(C)[nH]c(C)c1C(=O)N1CCCC1	19.7%
CCOP(=O)(O)c1ccccc1OCCOCCOc1ccccc1P(=O)(O)OCC	8.94%
COc1ccc(OCCCC(=O)N(C)CC(=O)Nc2ccccc2Cl)cc1	-5.61%

Structure (SMILES)	hERG current change (%, negative = inhibition) at 10uM
CN=c1scc(-c2ccccc2F)n1/N=C/c1ccc[nH]1	-7.64%
Cn1c(=O)c(NC(=O)c2ccccc2)c2n(c1=S)CCCCC2	-1.47%
C/C(=N\NS(=O)(=O)c1ccccc1)c1cc(Cl)cc(Cl)c1O	8.47%
C/C(=N\N=C(N)N)c1ccccc1	11.2%
COCCn1c(SCC(=O)c2ccccc2)nc2c(c1=O)SC(C)C2 (stereo not shown)	-25.8%
CCOC(=O)CNC(=O)COc1coc(CN2CCN(c3ccccc3)CC2)cc1=O	3.41%
Brc1cnc2nc[nH]c2c1	24.9%
Nc1c(C(=O)N2CCOCC2)oc2ccccc12	20.5%
CC(=O)N1N=C(c2ccc(Cl)cc2)CC1c1ccc([N+](=O)[O-])cc1 (stereo not shown)	11.8%
COc1cc(NC(=O)CN2C(=O)NC(C)(c3ccccc3)C2=O)c(C)cc1[N+](=O)[O-] (stereo not shown)	-12%
NC1=NC(=Nc2ccc(Cl)cc2)c2ccccc21	-3.81%
Cn1c(SCC(=O)Nc2cccc(Br)c2)nnc1-c1cc2ccccc2o1	13.2%
CN1[C@@H]2CC[C@H]1CC(OC1c3ccccc3CCc3ccccc31)C2.O=C(O)CC(O)(CC(=O)O)C(=O)O (stereo partly shown)	-42.6%
O=C(C#Cc1ccccc1)NCc1ccccc1F	-2.39%
CCc1nccn1S(=O)(=O)c1ccccc1[N+](=O)[O-]	3.92%
COc1ccc2c(c1)c(C)cc[n+]2Cc1ccccc1.[Cl-]	23.1%
CCOC(=O)c1sc(NC(=O)CCN2CCN(C)CC2)c(C(=O)OCC)c1C	-79%
O=C(Nc1cccc(-c2ccc(N3CCCCC3)nn2)c1)c1ccco1	-28.7%
CC(C)CS(=O)(=O)C1=NSC2=NC(=O)/C(=C\c3ccc(OC(=O)c4ccco4)cc3)C(=N)N21	10.9%
O=[N+]([O-])c1cccc(-c2cn3ccccc3n2)c1	12.8%
O=C(NC1CC1)C1CCN(C2CCN(C(=O)CSc3ccccc3)CC2)CC1	-3.98%
COc1ccccc1C(O)(C(=O)NNc1cccc(C)c1)c1ccccc1OC	4.87%
